Source: ChEMBL document CHEMBL5724801, “EUbOPEN Chemogenomics Library - Multiplex” (2024)
Some entries of the source have several records that differ or are many. Only these are listed. An entry can have further records. The values listed for one entry are repeats in other runs, samples, wells, individuals or studies. Dates in brackets are months of testing.

Key:
Type in all cases: toxicity, cell-based
Fibroblast = assay: Multiplex assay against human fibroblast
Outline: (§1)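 Live cells were stained at seeding with Hoechst33342, BioTracker Green Microtubule Cytoskeleton Dye, MitoTracker Red and Annexin V Alexa Fluor 680. Following compound addition, they were imaged on a CQ1 microscope at 37°C and 5% CO2 and gated by CellPathfinder machine learning into Hoechst high-intensity objects or normal cells, with normal cells split into healthy, pyknosed or fragmented nuclei and pyknosed cells into mitotic or apoptotic. Tubulin, mitochondrial-mass and membrane-permeability phenotypes are per cents of healthy-nucleus cells.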

U2OS = assay: Multiplex assay against U2OS; conditions: human; outline: as §1
HEK-293T = assay: Multiplex assay against HEK293T; conditions: human; outline: as §1
[1] = 12 h, 1 µM, compound concentration 1 uM
[2] = 12 h, 10 µM, compound concentration 10 uM
[3] = 24 h, 1 µM, compound concentration 1 uM
[4] = 24 h, 10 µM, compound concentration 10 uM
[5] = 48 h, 1 µM, compound concentration 1 uM
[6] = 48 h, 10 µM, compound concentration 10 uM

## Cc1cc(O)c(-c2ccc([C@@H](C)CN(C)C)cc2)c2c1[nH]c(=O)c1sccc12
Fibroblast; [1]
  Population Apoptotic (%): 59% and 50% and 16.13%, 27.59% [2024-01]
  Population Fragmented Nuclei (%): 12% and 22% and 11.76%, 4.76% [2024-01]
Fibroblast; [2]
  Population Fragmented Nuclei (%): 19% and 28% and 12.18%, 3.75% [2024-01]
Fibroblast; [3]
  Population Apoptotic (%): 45% and 52% and 14.63%, 15.38% [2024-01]
  Population Fragmented Nuclei (%): 11% and 28% and 10.71%, 6.94% [2024-01]
Fibroblast; [4]
  Population Fragmented Nuclei (%): 11% and 30% and 12.5%, 3.83% [2024-01]
Fibroblast; [5]
  Population Fragmented Nuclei (%): 19% and 31% and 22.29%, 5.38% [2024-01]
  Population Membrane Permeable-Phenotype (%): 1% and 2% and 4.65%, 19.39% [2024-01]
Fibroblast; [6]
  Population Fragmented Nuclei (%): 17% and 39% and 14.52%, 3.21% [2024-01]
  Population Pyknosed Nuclei (%): 29% and 16% and 40.32%, 48.66% [2024-01]
U2OS; [1]
  Population Fragmented Nuclei (%): 38% and 25% and 4.49%, 7.74% [2024-01]
  Population Membrane Permeable-Phenotype (%): 21% and 9% and 4.57%, 6.67% [2024-01]
  Population Mitochondria Different-Phenotype (%): 17% and 14% and 0.57%, 15.24% [2024-01]
  Population Mitotic Cells (%): 19% and 30% and 61.79%, 54% [2024-01]
  Population Pyknosed Nuclei (%): 12% and 11% and 39.42%, 29.76% [2024-01]
  Total Cell Count: 252 and 89 and 313, 168 [2024-01]
U2OS; [2]
  Population Fragmented Nuclei (%): 28% and 20% and 1.74%, 2.82% [2024-01]
  Population Membrane Permeable-Phenotype (%): 54% and 22% and 5.1%, 24.32% [2024-01]
  Population Mitochondria Different-Phenotype (%): 62% and 61% and 6.12%, 40.54% [2024-01]
  Total Cell Count: 222 and 110 and 344, 142 [2024-01]
U2OS; [3]
  Population Fragmented Nuclei (%): 43% and 41% and 12.37%, 15.15% [2024-01]
  Population Membrane Permeable-Phenotype (%): 20% and 15% and 2.22%, 7.32% [2024-01]
  Population Mitochondria Different-Phenotype (%): 25% and 21% and 2.22%, 19.51% [2024-01]
  Population Mitotic Cells (%): 7% and 0% and 54.76%, 39.39% [2024-01]
  Population Pyknosed Nuclei (%): 21% and 17% and 72.16%, 60% [2024-01]
  Total Cell Count: 256 and 83 and 292, 165 [2024-01]
U2OS; [4]
  Population Fragmented Nuclei (%): 36% and 40% and 7.47%, 6.92% [2024-01]
U2OS; [5]
  Population Fragmented Nuclei (%): 53% and 64% and 13.81%, 12.35% [2024-01]
  Population Hoechst High Intensity Objects (%): 17% and 15% and 0.37%, 1.16% [2024-01]
  Population Membrane Permeable-Phenotype (%): 23% and 35% and 12.5%, 3.57% [2024-01]
  Population Mitochondria Different-Phenotype (%): 25% and 35% and 8.33%, 3.57% [2024-01]
  Population Mitotic Cells (%): 3% and 0% and 27.05%, 16.53% [2024-01]
  Population Pyknosed Nuclei (%): 27% and 15% and 77.24%, 71.18% [2024-01]
U2OS; [6]
  Population Fragmented Nuclei (%): 50% and 54% and 7.3%, 4.1% [2024-01]
  Population Hoechst High Intensity Objects (%): 20% and 15% and 1.08%, 0.81% [2024-01]
  Population Membrane Permeable-Phenotype (%): 25% and 64% and 5.13%, 8.33% [2024-01]
HEK-293T; [1]
  Population Apoptotic (%): 63% and 59% and 11.11%, 10.57% [2024-01]
  Population Fragmented Nuclei (%): 14% and 8% and 0.48%, 2.14% [2024-01]
  Population Healthy Nuclei (%): 49% and 66% and 25.96%, 10% [2024-01]
  Population Hoechst High Intensity Objects (%): 27% and 28% and 0% [2024-01]
  Population Mitochondria Different-Phenotype (%): 90% and 91% and 44.44%, 7.14% [2024-01]
  Population Pyknosed Nuclei (%): 36% and 25% and 73.56%, 87.86% [2024-01]
HEK-293T; [2]
  Population Apoptotic (%): 53% and 70% and 21.18%, 37.21% [2024-01]
  Population Healthy Nuclei (%): 44% and 60% and 21.88%, 7.8% [2024-01]
  Population Hoechst High Intensity Objects (%): 41% and 28% and 0% [2024-01]
  Population Mitochondria Different-Phenotype (%): 100% and 94% and 38.78%, 27.27% [2024-01]
HEK-293T; [3]
  Population Healthy Nuclei (%): 60% and 70% and 34.65%, 11.03% [2024-01]
  Population Pyknosed Nuclei (%): 30% and 19% and 62.72%, 86.03% [2024-01]
HEK-293T; [4]
  Population Healthy Nuclei (%): 67% and 69% and 24.88%, 5.33% [2024-01]
  Population Hoechst High Intensity Objects (%): 36% and 25% and 0.48%, 0% [2024-01]
  Population Pyknosed Nuclei (%): 24% and 23% and 74.16%, 93.33% [2024-01]
HEK-293T; [5]
  Population Fragmented Nuclei (%): 13% and 16% and 3.92%, 1.48% [2024-01]
  Population Healthy Nuclei (%): 65% and 67% and 36.76%, 13.33% [2024-01]
  Population Pyknosed Nuclei (%): 20% and 16% and 59.31%, 85.19% [2024-01]
HEK-293T; [6]
  Population Healthy Nuclei (%): 64% and 58% and 30.77%, 5.67% [2024-01]
  Population Hoechst High Intensity Objects (%): 40% and 34% and 0.48%, 0% [2024-01]
  Population Pyknosed Nuclei (%): 20% and 28% and 66.83%, 94.33% [2024-01]

## Cl.Cl.N#Cc1ccc(O[C@@H]2c3ccccc3C[C@H]2N2CCC[C@@H](N)C2)c(Cl)c1
Fibroblast; [3]
  Population Apoptotic (%): 2% and 22.22%
  Population Pyknosed Nuclei (%): 30.86% and 8.78%
Fibroblast; [6]
  Population Fragmented Nuclei (%): 20.69% and 6.77%
U2OS; [1]
  Population Mitochondria Different-Phenotype (%): 1.91% and 57.66%
U2OS; [3]
  Population Mitochondria Different-Phenotype (%): 1.94% and 76.99%
U2OS; [5]
  Population Membrane Permeable-Phenotype (%): 3.06% and 29.73%
  Population Mitochondria Different-Phenotype (%): 1.22% and 57.66%
  Population Tubulin-Different-Phenotype (%): 12.65% and 66.67%
  Total Cell Count: 614 and 175
U2OS; [6]
  Population Mitotic Cells (%): 26.71% and 8.79%
HEK-293T; [1]
  Population Healthy Nuclei (%): 50.59% and 8.77%
HEK-293T; [3]
  Population Healthy Nuclei (%): 68.32% and 14.41%
  Total Cell Count: 506 and 111
HEK-293T; [4]
  Population Healthy Nuclei (%): 37.11% and 7.91%
HEK-293T; [5]
  Population Apoptotic (%): 9.38% and 33.87%
  Population Pyknosed Nuclei (%): 13.6% and 52.54%
  Population Tubulin-Different-Phenotype (%): 3.04% and 89.36%
  Total Cell Count: 942 and 118

## CC/C(=C(\c1ccc(O)cc1)c1ccc(OCCN(C)C)cc1)c1ccccc1 [AFIMOXIFENE]
Fibroblast; [2]
  Population Apoptotic (%): 5.88% and 19.05%
Fibroblast; [5]
  Population Apoptotic (%): 5% and 26.67%
U2OS; [1]
  Population Apoptotic (%): 48.39% and 12.5%
U2OS; [2]
  Population Mitochondria Different-Phenotype (%): 3.9% and 55.65%
U2OS; [4]
  Population Mitochondria Different-Phenotype (%): 1.32% and 46.49%
U2OS; [5]
  Total Cell Count: 873 and 282
U2OS; [6]
  Population Mitochondria Different-Phenotype (%): 1.49% and 26%
HEK-293T; [1]
  Population Tubulin-Different-Phenotype (%): 4.83% and 25.81%
HEK-293T; [2]
  Population Healthy Nuclei (%): 44.11% and 6.77%
  Population Membrane Permeable-Phenotype (%): 0.76% and 11.11%
HEK-293T; [3]
  Total Cell Count: 641 and 186
HEK-293T; [4]
  Population Healthy Nuclei (%): 58.29% and 17.05%
HEK-293T; [5]
  Population Tubulin-Different-Phenotype (%): 1.4% and 53.9%
  Total Cell Count: 1253 and 251
HEK-293T; [6]
  Population Tubulin-Different-Phenotype (%): 9.51% and 53.12%
  Total Cell Count: 491 and 129

## CC(C)Oc1ccc(F)c(-c2cnc(N)c(C(=O)Nc3cnccc3N3CCC[C@@H](C(=O)O)C3)n2)c1
Fibroblast; [3]
  Population Apoptotic (%): 6.45% and 28.57%
U2OS; [2]
  Population Mitochondria Different-Phenotype (%): 0.86% and 19.71%
U2OS; [4]
  Population Membrane Permeable-Phenotype (%): 2.41% and 17.14%
  Population Mitochondria Different-Phenotype (%): 0.27% and 20.71%
U2OS; [6]
  Population Mitochondria Different-Phenotype (%): 1.1% and 15.11%
HEK-293T; [1]
  Population Healthy Nuclei (%): 58.1% and 16.34%
  Population Tubulin-Different-Phenotype (%): 7.69% and 28%
HEK-293T; [2]
  Population Healthy Nuclei (%): 49.25% and 14.29%
HEK-293T; [3]
  Population Healthy Nuclei (%): 79.57% and 26.14%
  Population Pyknosed Nuclei (%): 19.65% and 64.71%
  Total Cell Count: 509 and 153
HEK-293T; [4]
  Population Tubulin-Different-Phenotype (%): 67.08% and 21.15%
HEK-293T; [5]
  Population Tubulin-Different-Phenotype (%): 6.85% and 43.3%
  Total Cell Count: 912 and 188

## CC(C)c1ccc(/C=N/NC(=O)c2ccc(O)cc2)cc1
Fibroblast; [2]
  Population Apoptotic (%): 4.44% and 22.92%
Fibroblast; [4]
  Population Apoptotic (%): 4.76% and 16.67%
Fibroblast; [5]
  Population Mitochondria Different-Phenotype (%): 13.78% and 3.57%
U2OS; [4]
  Total Cell Count: 535 and 177
U2OS; [6]
  Total Cell Count: 992 and 292
HEK-293T; [1]
  Population Tubulin-Different-Phenotype (%): 5.8% and 31.25%
HEK-293T; [2]
  Population Healthy Nuclei (%): 53.52% and 14.94%
  Population Tubulin-Different-Phenotype (%): 4.74% and 26.09%
HEK-293T; [3]
  Total Cell Count: 566 and 168
HEK-293T; [5]
  Population Pyknosed Nuclei (%): 11.47% and 44.61%
  Population Tubulin-Different-Phenotype (%): 2% and 34.55%
  Total Cell Count: 1345 and 204
HEK-293T; [6]
  Total Cell Count: 1379 and 207
